The results in this text go back to article PMC6290075.

Sequences of proteins named here, by UniProt entry; tags and fusion partners are left off.
UniProt Q9BTV5: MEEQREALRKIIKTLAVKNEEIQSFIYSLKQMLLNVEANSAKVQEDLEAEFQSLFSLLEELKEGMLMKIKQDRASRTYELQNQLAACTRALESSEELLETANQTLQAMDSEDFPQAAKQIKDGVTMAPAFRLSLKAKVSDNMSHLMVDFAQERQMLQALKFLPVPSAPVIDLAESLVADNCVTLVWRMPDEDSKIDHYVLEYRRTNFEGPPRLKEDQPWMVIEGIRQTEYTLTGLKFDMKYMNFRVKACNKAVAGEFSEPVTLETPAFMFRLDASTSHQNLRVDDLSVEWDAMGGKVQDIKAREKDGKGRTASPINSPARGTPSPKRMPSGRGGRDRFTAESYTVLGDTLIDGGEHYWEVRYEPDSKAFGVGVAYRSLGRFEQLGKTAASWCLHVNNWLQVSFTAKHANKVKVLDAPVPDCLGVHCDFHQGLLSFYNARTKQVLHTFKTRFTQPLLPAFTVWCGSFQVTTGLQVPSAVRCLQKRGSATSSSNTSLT
UniProt Q5VT06: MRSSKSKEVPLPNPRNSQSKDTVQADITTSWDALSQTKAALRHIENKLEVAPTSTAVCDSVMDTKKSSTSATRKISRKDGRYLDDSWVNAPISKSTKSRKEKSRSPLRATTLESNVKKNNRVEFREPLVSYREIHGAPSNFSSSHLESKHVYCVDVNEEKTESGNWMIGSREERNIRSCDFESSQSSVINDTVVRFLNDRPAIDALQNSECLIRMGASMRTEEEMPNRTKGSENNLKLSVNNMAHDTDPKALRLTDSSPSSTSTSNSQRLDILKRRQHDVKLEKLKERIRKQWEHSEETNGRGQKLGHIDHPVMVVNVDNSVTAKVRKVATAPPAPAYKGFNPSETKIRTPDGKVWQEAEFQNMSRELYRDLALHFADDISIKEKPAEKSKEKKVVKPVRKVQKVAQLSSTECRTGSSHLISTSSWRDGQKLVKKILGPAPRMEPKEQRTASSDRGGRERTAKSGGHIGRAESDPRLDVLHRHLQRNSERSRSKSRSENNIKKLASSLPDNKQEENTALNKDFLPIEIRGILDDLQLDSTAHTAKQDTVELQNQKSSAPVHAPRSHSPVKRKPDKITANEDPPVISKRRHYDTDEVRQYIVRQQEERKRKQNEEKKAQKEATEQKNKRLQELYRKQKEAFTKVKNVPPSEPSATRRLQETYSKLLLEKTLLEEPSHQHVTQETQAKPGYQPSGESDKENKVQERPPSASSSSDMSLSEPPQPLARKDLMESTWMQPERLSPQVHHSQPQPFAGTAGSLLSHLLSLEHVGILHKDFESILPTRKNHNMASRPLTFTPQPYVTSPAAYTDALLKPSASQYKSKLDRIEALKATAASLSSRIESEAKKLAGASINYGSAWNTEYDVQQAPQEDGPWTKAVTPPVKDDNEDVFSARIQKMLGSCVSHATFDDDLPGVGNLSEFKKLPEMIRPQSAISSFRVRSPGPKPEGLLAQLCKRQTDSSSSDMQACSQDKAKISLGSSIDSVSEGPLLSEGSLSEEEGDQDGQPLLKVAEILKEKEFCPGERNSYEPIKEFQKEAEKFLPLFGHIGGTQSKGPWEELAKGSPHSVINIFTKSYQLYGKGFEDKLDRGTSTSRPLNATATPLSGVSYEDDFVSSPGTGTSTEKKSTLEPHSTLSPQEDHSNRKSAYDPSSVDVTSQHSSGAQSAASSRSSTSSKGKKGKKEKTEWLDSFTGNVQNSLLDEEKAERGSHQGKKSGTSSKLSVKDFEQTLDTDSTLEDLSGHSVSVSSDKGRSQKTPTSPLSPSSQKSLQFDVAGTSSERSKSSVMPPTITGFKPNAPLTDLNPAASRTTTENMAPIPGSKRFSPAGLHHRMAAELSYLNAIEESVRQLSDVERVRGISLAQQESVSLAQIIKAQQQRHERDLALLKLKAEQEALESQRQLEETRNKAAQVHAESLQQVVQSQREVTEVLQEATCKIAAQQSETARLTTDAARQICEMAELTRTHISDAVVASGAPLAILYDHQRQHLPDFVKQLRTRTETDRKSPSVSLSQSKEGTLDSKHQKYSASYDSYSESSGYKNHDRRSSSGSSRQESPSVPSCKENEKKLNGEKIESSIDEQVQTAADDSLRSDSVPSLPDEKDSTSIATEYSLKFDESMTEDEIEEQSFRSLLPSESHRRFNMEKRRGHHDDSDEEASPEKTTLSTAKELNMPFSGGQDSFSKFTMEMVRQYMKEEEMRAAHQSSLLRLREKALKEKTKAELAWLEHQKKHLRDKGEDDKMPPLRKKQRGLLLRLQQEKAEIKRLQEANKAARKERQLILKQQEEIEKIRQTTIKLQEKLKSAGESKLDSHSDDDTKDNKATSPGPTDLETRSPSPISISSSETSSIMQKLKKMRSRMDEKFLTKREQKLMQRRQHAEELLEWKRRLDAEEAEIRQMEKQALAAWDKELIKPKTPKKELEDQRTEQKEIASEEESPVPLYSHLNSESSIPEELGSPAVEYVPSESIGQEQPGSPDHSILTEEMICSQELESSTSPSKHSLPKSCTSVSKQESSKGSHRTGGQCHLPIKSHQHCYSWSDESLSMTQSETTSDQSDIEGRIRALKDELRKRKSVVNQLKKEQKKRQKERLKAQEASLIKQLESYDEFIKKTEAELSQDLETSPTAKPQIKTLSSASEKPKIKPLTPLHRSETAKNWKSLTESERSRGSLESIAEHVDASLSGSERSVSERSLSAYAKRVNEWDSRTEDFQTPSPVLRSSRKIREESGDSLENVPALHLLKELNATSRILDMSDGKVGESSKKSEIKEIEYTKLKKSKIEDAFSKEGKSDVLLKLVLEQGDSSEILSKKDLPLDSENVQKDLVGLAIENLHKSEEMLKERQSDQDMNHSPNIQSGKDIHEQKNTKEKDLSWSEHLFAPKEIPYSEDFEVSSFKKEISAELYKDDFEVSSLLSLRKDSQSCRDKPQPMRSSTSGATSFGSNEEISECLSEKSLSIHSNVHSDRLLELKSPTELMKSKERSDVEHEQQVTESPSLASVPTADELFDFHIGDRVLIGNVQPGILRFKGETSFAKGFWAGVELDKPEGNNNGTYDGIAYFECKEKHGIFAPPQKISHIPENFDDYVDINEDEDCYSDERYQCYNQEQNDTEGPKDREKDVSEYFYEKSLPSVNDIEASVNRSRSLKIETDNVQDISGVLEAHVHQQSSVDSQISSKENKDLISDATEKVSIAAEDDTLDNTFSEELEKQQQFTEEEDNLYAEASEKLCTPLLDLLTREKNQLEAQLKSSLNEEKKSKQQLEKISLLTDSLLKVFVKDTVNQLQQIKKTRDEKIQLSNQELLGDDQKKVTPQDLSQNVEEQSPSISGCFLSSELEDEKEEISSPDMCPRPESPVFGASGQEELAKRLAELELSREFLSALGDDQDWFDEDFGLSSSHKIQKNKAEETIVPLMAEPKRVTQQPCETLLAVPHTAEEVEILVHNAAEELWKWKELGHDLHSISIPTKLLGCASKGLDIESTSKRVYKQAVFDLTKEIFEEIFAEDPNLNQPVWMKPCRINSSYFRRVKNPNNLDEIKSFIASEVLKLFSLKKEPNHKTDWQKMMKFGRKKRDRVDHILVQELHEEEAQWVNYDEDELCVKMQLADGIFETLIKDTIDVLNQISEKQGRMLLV

No constants are given. Whether binding was seen depends on the method and setting. Binding seen in cells or lysates may run through a third protein. Some binding calls cover weakened binding; strength is not graded here.

Assay [1] concerns the target FSD1 (fibronectin type III and SPRY domain containing 1), endogenous (human (endogenous in RPE-1)) (UniProt Q9BTV5). Description: co-IP; endogenous proteins, RPE-1 cells lysed in ELB buffer (50 mM HEPES pH 7.0, 250 mM NaCl, 5 mM EDTA, 0.1% NP-40, 10% glycerol); immunoprecipitated with anti-FSD1, anti-CAP350, anti-FOP or control IgG at 4 °C overnight; immunoblot.
The target of the next assay is Flag-FSD1 (UniProt Q9BTV5). Nature of the assay: co-IP; Flag-FSD1 transfected into HEK293T cells, harvested 24 h after transfection; Flag M2 beads with cell extract at 4 °C for 2 h; immunoblot of endogenous proteins.
Assay [2] addresses CAP350, endogenous in RPE-1 cells (human (endogenous in RPE-1)) (UniProt Q5VT06). Description: co-IP; endogenous proteins, RPE-1 cells lysed in ELB buffer (50 mM HEPES pH 7.0, 250 mM NaCl, 5 mM EDTA, 0.1% NP-40, 10% glycerol); immunoprecipitated with anti-FSD1, anti-CAP350, anti-FOP or control IgG at 4 °C overnight; immunoblot.
Assay [3] has as its target T1, FOP, endogenous in RPE-1 cells (human (endogenous in RPE-1)) (UniProt O95684).
T1 sequence: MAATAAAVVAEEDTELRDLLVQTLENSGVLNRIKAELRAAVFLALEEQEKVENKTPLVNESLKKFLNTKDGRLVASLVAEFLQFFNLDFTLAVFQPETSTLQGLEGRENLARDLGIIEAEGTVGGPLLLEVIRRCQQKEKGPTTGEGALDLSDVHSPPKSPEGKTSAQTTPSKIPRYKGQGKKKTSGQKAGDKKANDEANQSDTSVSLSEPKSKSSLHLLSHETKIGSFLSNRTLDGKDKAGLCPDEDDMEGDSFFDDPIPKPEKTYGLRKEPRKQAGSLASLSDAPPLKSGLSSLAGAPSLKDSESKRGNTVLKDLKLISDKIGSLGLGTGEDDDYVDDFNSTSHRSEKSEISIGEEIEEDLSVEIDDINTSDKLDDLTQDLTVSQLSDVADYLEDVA
Described as above.

Take “CAP350, endogenous in RPE-1 cells (from UniProt Q5VT06 1-3117)”: in assay [1], the binding entry is on record as “binds”.
“CAP350, endogenous in HEK293T cells (from UniProt Q5VT06 1-3117)”: the binding result in the assay with Flag-FSD1 is “binds”.
Consider “FSD1 (fibronectin type III and SPRY domain containing 1), endogenous (from UniProt Q9BTV5 1-496)”, for which the binding entry in assay [2] and in assay [3] was “binds” throughout.

B1: CEP19, endogenous in HEK293T cells (protein, UniProt Q96LK0 1-163)
chain: MMCTAKKCGIRFQPPAIILIYESEIKGKIRQRIMPVRNFSKFSDCTRAAEQLKNNPRHKSYLEQVSLRQLEKLFSFLRGYLSGQSLAETMEQIQRETTIDPEEDLNKLDDKELAKRKSIMDELFEKNQKKKDDPNFVYDIEVEFPQDDQLQSCGWDTESADEF
Turning to B1, the binding entry with Flag-FSD1 is on record as “no binding”.

B2: FOP, endogenous in HEK293T cells (protein, UniProt O95684 1-399)
chain: MAATAAAVVAEEDTELRDLLVQTLENSGVLNRIKAELRAAVFLALEEQEKVENKTPLVNESLKKFLNTKDGRLVASLVAEFLQFFNLDFTLAVFQPETSTLQGLEGRENLARDLGIIEAEGTVGGPLLLEVIRRCQQKEKGPTTGEGALDLSDVHSPPKSPEGKTSAQTTPSKIPRYKGQGKKKTSGQKAGDKKANDEANQSDTSVSLSEPKSKSSLHLLSHETKIGSFLSNRTLDGKDKAGLCPDEDDMEGDSFFDDPIPKPEKTYGLRKEPRKQAGSLASLSDAPPLKSGLSSLAGAPSLKDSESKRGNTVLKDLKLISDKIGSLGLGTGEDDDYVDDFNSTSHRSEKSEISIGEEIEEDLSVEIDDINTSDKLDDLTQDLTVSQLSDVADYLEDVA
As to B2, the binding result in the assay with Flag-FSD1 is “binds”.

B3: FOP, endogenous in RPE-1 cells (protein, UniProt O95684 1-399)
chain: MAATAAAVVAEEDTELRDLLVQTLENSGVLNRIKAELRAAVFLALEEQEKVENKTPLVNESLKKFLNTKDGRLVASLVAEFLQFFNLDFTLAVFQPETSTLQGLEGRENLARDLGIIEAEGTVGGPLLLEVIRRCQQKEKGPTTGEGALDLSDVHSPPKSPEGKTSAQTTPSKIPRYKGQGKKKTSGQKAGDKKANDEANQSDTSVSLSEPKSKSSLHLLSHETKIGSFLSNRTLDGKDKAGLCPDEDDMEGDSFFDDPIPKPEKTYGLRKEPRKQAGSLASLSDAPPLKSGLSSLAGAPSLKDSESKRGNTVLKDLKLISDKIGSLGLGTGEDDDYVDDFNSTSHRSEKSEISIGEEIEEDLSVEIDDINTSDKLDDLTQDLTVSQLSDVADYLEDVA
For B3, the binding result in assay [1] was “binds”.
